The results in this text go back to paper PMC10497406.

Sequences of proteins named here, by UniProt entry; tags and fusion partners are left off.
UniProt Q6KC79: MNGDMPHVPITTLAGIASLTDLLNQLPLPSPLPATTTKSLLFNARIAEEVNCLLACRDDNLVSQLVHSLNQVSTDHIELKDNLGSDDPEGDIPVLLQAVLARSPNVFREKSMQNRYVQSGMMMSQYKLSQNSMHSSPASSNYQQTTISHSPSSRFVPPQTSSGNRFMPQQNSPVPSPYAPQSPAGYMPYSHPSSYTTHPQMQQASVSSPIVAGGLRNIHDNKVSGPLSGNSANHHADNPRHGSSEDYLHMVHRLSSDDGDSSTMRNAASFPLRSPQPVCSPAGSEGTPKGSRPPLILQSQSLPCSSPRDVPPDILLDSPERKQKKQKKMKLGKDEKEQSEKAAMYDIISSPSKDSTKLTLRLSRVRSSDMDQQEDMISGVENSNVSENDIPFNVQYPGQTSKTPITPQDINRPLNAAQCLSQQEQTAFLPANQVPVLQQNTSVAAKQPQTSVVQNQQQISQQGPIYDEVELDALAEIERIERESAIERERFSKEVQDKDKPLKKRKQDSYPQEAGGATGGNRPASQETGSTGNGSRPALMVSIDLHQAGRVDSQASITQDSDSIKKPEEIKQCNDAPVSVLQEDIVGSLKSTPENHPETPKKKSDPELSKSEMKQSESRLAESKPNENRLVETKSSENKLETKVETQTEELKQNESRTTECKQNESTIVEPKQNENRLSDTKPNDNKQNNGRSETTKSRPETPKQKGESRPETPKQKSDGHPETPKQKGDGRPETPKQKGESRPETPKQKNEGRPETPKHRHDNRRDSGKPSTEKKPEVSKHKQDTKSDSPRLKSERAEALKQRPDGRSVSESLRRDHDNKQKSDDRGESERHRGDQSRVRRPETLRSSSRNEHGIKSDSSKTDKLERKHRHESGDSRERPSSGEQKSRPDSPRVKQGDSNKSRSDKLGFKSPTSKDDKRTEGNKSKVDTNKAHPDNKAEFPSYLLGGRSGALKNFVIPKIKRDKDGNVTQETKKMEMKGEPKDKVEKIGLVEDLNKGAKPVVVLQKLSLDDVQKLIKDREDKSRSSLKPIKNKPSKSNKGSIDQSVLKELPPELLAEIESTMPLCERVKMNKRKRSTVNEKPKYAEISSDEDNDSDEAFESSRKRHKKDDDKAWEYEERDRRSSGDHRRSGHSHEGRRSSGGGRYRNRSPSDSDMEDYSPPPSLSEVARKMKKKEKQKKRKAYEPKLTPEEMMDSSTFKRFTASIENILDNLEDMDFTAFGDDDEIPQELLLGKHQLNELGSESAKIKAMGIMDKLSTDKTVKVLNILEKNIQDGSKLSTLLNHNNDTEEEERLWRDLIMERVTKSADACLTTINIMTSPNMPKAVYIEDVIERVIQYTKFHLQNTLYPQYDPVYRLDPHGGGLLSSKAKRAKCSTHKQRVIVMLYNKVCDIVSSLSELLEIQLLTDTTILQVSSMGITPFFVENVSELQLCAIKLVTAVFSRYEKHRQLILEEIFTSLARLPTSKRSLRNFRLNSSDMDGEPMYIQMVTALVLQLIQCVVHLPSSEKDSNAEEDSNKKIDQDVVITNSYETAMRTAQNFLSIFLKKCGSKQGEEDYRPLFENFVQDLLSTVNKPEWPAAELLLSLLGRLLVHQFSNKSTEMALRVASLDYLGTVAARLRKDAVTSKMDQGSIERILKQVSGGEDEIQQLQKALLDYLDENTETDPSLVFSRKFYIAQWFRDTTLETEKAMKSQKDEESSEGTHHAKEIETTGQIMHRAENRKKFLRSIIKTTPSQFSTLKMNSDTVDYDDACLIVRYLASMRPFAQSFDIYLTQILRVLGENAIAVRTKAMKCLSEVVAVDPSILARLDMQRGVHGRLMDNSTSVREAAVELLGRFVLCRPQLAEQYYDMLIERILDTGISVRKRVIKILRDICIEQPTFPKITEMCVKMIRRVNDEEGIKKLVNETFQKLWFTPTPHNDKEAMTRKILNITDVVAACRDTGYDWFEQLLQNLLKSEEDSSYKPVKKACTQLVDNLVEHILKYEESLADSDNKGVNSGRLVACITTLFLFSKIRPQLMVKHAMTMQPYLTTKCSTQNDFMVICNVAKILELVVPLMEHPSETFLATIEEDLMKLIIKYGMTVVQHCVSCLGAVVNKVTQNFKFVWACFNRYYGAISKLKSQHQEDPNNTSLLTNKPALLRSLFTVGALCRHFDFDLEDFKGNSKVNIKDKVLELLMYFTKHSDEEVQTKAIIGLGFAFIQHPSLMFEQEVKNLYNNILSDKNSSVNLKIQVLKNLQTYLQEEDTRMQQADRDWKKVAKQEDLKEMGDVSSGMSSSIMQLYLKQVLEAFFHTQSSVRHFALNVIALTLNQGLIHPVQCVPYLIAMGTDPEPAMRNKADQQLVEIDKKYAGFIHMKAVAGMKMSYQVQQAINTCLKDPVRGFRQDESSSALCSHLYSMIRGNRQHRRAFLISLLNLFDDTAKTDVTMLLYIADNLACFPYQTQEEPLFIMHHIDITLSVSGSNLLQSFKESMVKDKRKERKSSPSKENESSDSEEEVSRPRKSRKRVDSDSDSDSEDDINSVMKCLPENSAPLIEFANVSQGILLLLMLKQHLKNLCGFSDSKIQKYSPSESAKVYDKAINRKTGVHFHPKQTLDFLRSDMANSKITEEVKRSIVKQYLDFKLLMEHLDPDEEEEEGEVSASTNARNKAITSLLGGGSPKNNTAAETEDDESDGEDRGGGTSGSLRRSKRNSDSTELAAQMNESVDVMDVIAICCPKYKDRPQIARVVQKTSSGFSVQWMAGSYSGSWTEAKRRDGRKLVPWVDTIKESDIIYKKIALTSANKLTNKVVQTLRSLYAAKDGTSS
UniProt P15873: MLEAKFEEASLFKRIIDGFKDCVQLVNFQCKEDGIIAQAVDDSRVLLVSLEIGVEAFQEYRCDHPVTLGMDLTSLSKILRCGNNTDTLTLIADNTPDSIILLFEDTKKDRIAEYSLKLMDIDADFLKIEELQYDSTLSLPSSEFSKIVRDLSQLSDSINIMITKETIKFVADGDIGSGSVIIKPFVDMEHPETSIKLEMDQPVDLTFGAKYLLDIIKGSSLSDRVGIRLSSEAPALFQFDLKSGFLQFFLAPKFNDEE

Assay [1] concerns the target human NIPBL, endogenous (human (endogenous in TK6)) (UniProt Q6KC79). Briefly: co-IP; IP of endogenous NIPBL (anti-NIPBL A301-779A, Dynabeads Protein A) from TK6 lysates with benzonase; lysis 150 mM NaCl, washes 200 mM NaCl, 0.5% NP-40; also after nocodazole synchronisation and release of TP53 knockout TK6 cells (asynchronous, G1, S, G2/M).
Assay [2] concerns the target GST–Pol30 (yeast PCNA fused to GST) (S. cerevisiae) (UniProt P15873). Briefly: pull-down; purified recombinant GST–Pol30 as bait, whole-cell extracts of yeast expressing HF-tagged Scc2^E822K from pADH1; only the target purified.
The target in assay [3] is human NIPBL, endogenous (human (endogenous in TK6)), Q6KC79. Kind of assay: co-IP; IP of endogenous NIPBL (anti-NIPBL A301-779A, Dynabeads Protein A) from TK6 lysates with benzonase; lysis 150 mM NaCl, washes 200 mM NaCl, 0.5% NP-40; also after nocodazole synchronisation and release of TP53 knockout TK6 cells (asynchronous, G1, S, G2/M). The note with it: remark: other sources report otherwise.

Results are given in words; binding and its absence hold for the method and conditions named. Binding seen in cells or lysates may run through a third protein. Some binding calls cover weakened binding; strength is not graded here. For part of these data: Where a sequence is shown, tags or fusion partners need not be part of it.

B1: human MAU2, endogenous (protein, UniProt Q9Y6X3 1-613)
chain: MAAQAAAAAQAAAAQAAQAEAADSWYLALLGFAEHFRTSSPPKIRLCVHCLQAVFPFKPPQRIEARTHLQLGSVLYHHTKNSEQARSHLEKAWLISQQIPQFEDVKFEAASLLSELYCQENSVDAAKPLLRKAIQISQQTPYWHCRLLFQLAQLHTLEKDLVSACDLLGVGAEYARVVGSEYTRALFLLSKGMLLLMERKLQEVHPLLTLCGQIVENWQGNPIQKESLRVFFLVLQVTHYLDAGQVKSVKPCLKQLQQCIQTISTLHDDEILPSNPADLFHWLPKEHMCVLVYLVTVMHSMQAGYLEKAQKYTDKALMQLEKLKMLDCSPILSSFQVILLEHIIMCRLVTGHKATALQEISQVCQLCQQSPRLFSNHAAQLHTLLGLYCVSVNCMDNAEAQFTTALRLTNHQELWAFIVTNLASVYIREGNRHQEVLYSLLERINPDHSFPVSSHCLRAAAFYVRGLFSFFQGRYNEAKRFLRETLKMSNAEDLNRLTACSLVLLGHIFYVLGNHRESNNMVVPAMQLASKIPDMSVQLWSSALLRDLNKACGNAMDAHEAAQMHQNFSQQLLQDHIEACSLPEHNLITWTDGPPPVQFQAQNGPNTSLASLL
As for B1, the binding entry in assay [1] is listed as “binds”.

B2: N-terminally 7His8Flag (HF)-tagged Scc2^E822K (protein, UniProt Q04002 1-1493)
chain: MSYPGKDKNIPGRIIEALEDLPLSYLVPKDGLAALVNAPMRVSLPFDKTIFTSADDGRDVNINVLGTANSTTSSIKNEAEKERLVFKRPSNFTSSANSVDYVPTNFLEGLSPLAQSVLSTHKGLNDSINIEKKSEIVSRPEAKHKLESVTSNAGNLSFNDNSSNKKTKTSTGVTMTQANLAEQYLNDLKNILDIVGFDQNSAEIGNIEYWLQLPNKKFVLTTNCLTKLQMTIKNITDNPQLSNSIEITWLLRLLDVMVCNIKFSKSSLKMGLDDSMLRYIALLSTIVLFNIFLLGKNDSNLHRESYIMEPVNFLSDLIESLKILTIEYGSLKIEFDTFQEALELLPKYIRNGPFLDDNVTAKLVYIFSDLLMNNDIEATTNIQFQSFWDNVKRISSDILVSLFGSFDQQRGFIIEELLSHIEKLPTKRIQKKLRKVGNQNIYITDFTFTLMSMLENINCYSFCNQMKDIAPENIDLLKNEYKKQEEFLFNIVEHINDTILERFFKNPSALRYVIDNFVQDLLLLISSPQWPVTEKILSSLLKRLLSVYSPSMQVSANIETICLQLIGNIGSTIFDIKCSTRDHEDNNLIKMINYPETLPHFFKSFEECIAYNETIKCRRSATRFLWNLRLGTILILEEYTKDAKEQIITVDNELKKILEQIKDGGLGPELENREADFSTIKLDYFSILHAFELLNLYDPYLKLILSLLAKDKIKLRSTAIKCLSMLASKDKVILSNPMVKETIHRRLNDSSASVKDAILDLVSINSSYFEFYQQINNNYNDDSIMVRKHVLRINEKMYDETNDIVTKVYVIARILMKIEDEKDNIIDMARLILLNRWILKVHEVLDQPEKLKEISSSVLLVMSRVAIMNEKCSQLFDLFLNFYLLNKEAHSKEAYDKITHVLTILTDFLVQKIVELNSDDTNEKNSIVDKQNFLNLLAKFADSTVSFLTKDHITALYPYMVSDEKSDFHYYILQVFRCTFEKLANFKQKFLYDLETTLLSRLPKMNVREIDEAMPLIWSVATHRHDTARVAKACSSCLSHLHPYINKANNEEAAIVVDGKLQRLIYLSTGFARFCFPKPSNDKIAFLQEGETLYEHITKCLLVLSKDKITHVIRRVAVKNLTKLCGNHPKLFNSRHVLHLLDKEFQSDQLDIKLVILESLYDLFLLEERKSVRNTGVNSTLSSNSILKKKLLKTNRVEFANDGVCSALATRFLDNILQLCLLRDLKNSLVAIRLLKLILKFGYTNPSHSIPTVIALFASTSQYIRHVAYELLEDLFEKYETLVFSSLSRGVTKAIHYSIHTDEKYYYKHDHFLSLLEKLCGTGKKNGPKFFKVLKRIMQSYLDDITDLTSTNSSVQKSIFVLCTNISNITFVSQYDLVSLLKTIDLTTDRLKEVIMDEIGDNVSSLSVSEEKLSGIILIQLSLQDLGTYLLHLYGLRDDVLLLDIVEESELKNKQLPAKKPDISKFSAQLENIEQYSSNGKLLTYFRKHVKDT
Turning to B2, the binding result in assay [2] was “binds”.

B3: human SMC3, endogenous, Q9UQE7 1-1217 (protein)
chain: MYIKQVIIQGFRSYRDQTIVDPFSSKHNVIVGRNGSGKSNFFYAIQFVLSDEFSHLRPEQRLALLHEGTGPRVISAFVEIIFDNSDNRLPIDKEEVSLRRVIGAKKDQYFLDKKMVTKNDVMNLLESAGFSRSNPYYIVKQGKINQMATAPDSQRLKLLREVAGTRVYDERKEESISLMKETEGKREKINELLKYIEERLHTLEEEKEELAQYQKWDKMRRALEYTIYNQELNETRAKLDELSAKRETSGEKSRQLRDAQQDARDKMEDIERQVRELKTKISAMKEEKEQLSAERQEQIKQRTKLELKAKDLQDELAGNSEQRKRLLKERQKLLEKIEEKQKELAETEPKFNSVKEKEERGIARLAQATQERTDLYAKQGRGSQFTSKEERDKWIKKELKSLDQAINDKKRQIAAIHKDLEDTEANKEKNLEQYNKLDQDLNEVKARVEELDRKYYEVKNKKDELQSERNYLWREENAEQQALAAKREDLEKKQQLLRAATGKAILNGIDSINKVLDHFRRKGINQHVQNGYHGIVMNNFECEPAFYTCVEVTAGNRLFYHIVDSDEVSTKILMEFNKMNLPGEVTFLPLNKLDVRDTAYPETNDAIPMISKLRYNPRFDKAFKHVFGKTLICRSMEVSTQLARAFTMDCITLEGDQVSHRGALTGGYYDTRKSRLELQKDVRKAEEELGELEAKLNENLRRNIERINNEIDQLMNQMQQIETQQRKFKASRDSILSEMKMLKEKRQQSEKTFMPKQRSLQSLEASLHAMESTRESLKAELGTDLLSQLSLEDQKRVDALNDEIRQLQQENRQLLNERIKLEGIITRVETYLNENLRKRLDQVEQELNELRETEGGTVLTATTSELEAINKRVKDTMARSEDLDNSIDKTEAGIKELQKSMERWKNMEKEHMDAINHDTKELEKMTNRQGMLLKKKEECMKKIRELGSLPQEAFEKYQTLSLKQLFRKLEQCNTELKKYSHVNKKALDQFVNFSEQKEKLIKRQEELDRGYKSIMELMNVLELRKYEAIQLTFKQVSKNFSEVFQKLVPGGKATLVMKKGDVEGSQSQDEGEGSGESERGSGSQSSVPSVDQFTGVGIRVSFTGKQGEMREMQQLSGGQKSLVALALIFAIQKCDPAPFYLFDEIDQALDAQHRKAVSDMIMELAVHAQFITTTFRPELLESADKFYGVKFRNKVSHIDVITAEMAKDFVEDDTTHG
B3: in assay [3], the binding entry is given as “binds”.
